Experimental data: PubChem BioAssay AID686970 (National Center for Advancing Translational Sciences (NCATS), 2013)
Out of some 360,000 compounds screened, about 6,000 (1.7%) were called active. The shares of active, inactive and inconclusive entries below differ from those in the screen. Calls come from the whole dose curve; as a rule, active = well fitted cell-killing curve with a large enough effect; inconclusive = small, poorly fitted or top-dose-only effect, or effect the other way; inactive = flat fitted curve, though single readings scatter. Potencies of inconclusive entries are left out as doubtful fits.

Test: qHTS for induction of synthetic lethality in tumor cells producing 2HG: qHTS for the HT-1080-NT fibrosarcoma cell line;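 note: NT is the 2HG producing partner of a matched IDH1 knockdown line; nearly all actives have a fitted effect of over 55% in size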;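 for activity, negative = less viability: 0% = DMSO-treated cells and -100% = media-only wells without cells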
Conditions: HT-1080-NT fibrosarcoma viability, CellTiter-Glo ATP luminescence, 48 h; activity, negative = less viability: at 46.1 µM (top of the series) unless noted
Summary of the method: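 750 cells/well, RPMI + 5% FBS; 2 h settle, compound pin-transfer, 48 h at 37 degrees C. CellTiter-Glo 10 min RT, luminescence. Normalized to DMSO and media-only wells.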
Potency is the fitted concentration of half-maximal effect; tags give direction and shape of the fitted curve.

| Compound | activity, negative = less viability | Potency |
| --- | --- | --- |
| CCOC(=O)N1CCN(C(=O)/C(=C/c2ccccc2OC)NC(=O)c2ccccc2)CC1 | inactive: 0.366% |  |
| CCOC(=O)c1[nH]c2ccc(F)cc2c1NC(=O)c1cc(OC)c(OC)c(OC)c1 | inactive: -5.15% |  |
| COc1ccc(N/C=C(\C2OC(=O)c3ccccc32)[N+](=O)[O-])cc1 (stereo not given) |  | inconclusive [cytotoxic, single point] |
| Cc1ccc(-n2[nH]c(C)c(/C=N/NC(=O)c3ccc(O)cc3O)c2=O)cc1 |  | active: 2.06 µM |
| CC1(C)O[C@@H]2C[C@H]3[C@@H]4CCC5=CC(=O)CC[C@]5(C)[C@@]4(F)[C@@H](O)C[C@]3(C)[C@]2(C(=O)CCl)O1 | inconclusive: 32% |  |
| CCCCN(C=O)c1c(CC)nc2ccc(C(=O)N(C)Cc3ccco3)cn12 | inconclusive: 30.6% |  |
| Cc1ccccc1-c1cc(C(=O)Nc2sc(C)c(C)c2C(N)=O)c2ccccc2n1 |  | inconclusive [cytotoxic, partial curve] |
| Cc1cc(C)c2cc(C(=O)N3CCC(C(=O)c4ccc(F)cc4)CC3)[nH]c2c1 |  | inconclusive [cytotoxic, single point] |
| COc1cccc(/C=C/C(=O)OCC(=O)NCC2CCCO2)c1OC (stereo not given) | inactive: 23.1% |  |
| CCn1cc(/C=N\NC(=O)c2ccccc2Cl)cn1 | inactive: 15.6% |  |
| O=C(C=Cc1ccc2c(c1)OCO2)c1ccccc1 |  | inconclusive [cytotoxic, single point] |
| CCCc1ccc2oc(C(=O)N3CCC(N4CCCC(O)C4)CC3)c(C)c2c1 (stereo not given) |  | inconclusive [cytotoxic, single point] |
| CCN(CC)CCNC(=O)c1cc2c(s1)-c1ccccc1SC2 |  | inconclusive [cytotoxic, single point] |
| COc1ccc(C)cc1Nc1nc(N)c2ccccc2n1 |  | inconclusive [cytotoxic, single point] |
| Cc1cccc(NC(=S)N(Cc2ccco2)C(C)c2cccs2)c1 (stereo not given) | inactive: 2.34% |  |
| CCOCC(=O)Nc1ccc(S(=O)(=O)NCC2CCCO2)cc1 (stereo not given) | inactive: 4.85% |  |
| O=C(Nc1ccc(OC(F)(F)F)cc1)C1CCCN(S(=O)(=O)c2cnc[nH]2)C1 (stereo not given) | inactive: -4.17% |  |
| NC(=O)c1ccccc1NCC(=O)c1ccc(F)cc1 | inconclusive: -31.6% [cytotoxic] |  |
| Cc1ccc2[nH]c(=O)c(CN(Cc3ccco3)C(=O)c3ccncc3)cc2c1 |  | inconclusive [cytotoxic, single point] |
| COC(=O)CSc1ncnc2c1sc1nc(N3CCOCC3)c3c(c12)CCCC3 | inactive: 16.3% |  |
| COc1ccc(C(C)(NC(C)=O)c2nc(-c3cccc(C(F)(F)F)c3)cs2)cc1 (stereo not given) |  | inconclusive [cytotoxic, single point] |
| COc1ccc(OC)c(C(c2nnnn2C(C)(C)C)N2CCc3ccccc3C2)c1 (stereo not given) |  | inconclusive [cytotoxic, single point] |
| COc1ccc(CCn2c(N3CCN(C)CC3)nc3c2c(=O)[nH]c(=O)n3C)cc1 | inactive: 10.8% |  |

| Compound | activity, negative = less viability | Potency |
| --- | --- | --- |
| CC(=O)N(c1nc(CCl)cs1)c1cccc(C)c1C | inconclusive: 24.7% |  |
| CSc1ccc(CN2CCC2(C)C(=O)Nc2ccc(C)c(O)c2)cc1 (stereo not given) |  | inconclusive [rising, single point] |
| O=C(Nc1ccc(Cl)cc1)C1CCCN(c2ncnc3c2nc2n3CCCCC2)C1 (stereo not given) |  | inconclusive [cytotoxic, partial curve] |
| O=C(N/N=C\c1c(O)ccc2ccccc12)c1ccc(Cn2cccn2)o1 |  | inconclusive [cytotoxic, partial curve] |
| c1ccc(-n2ncc3c2ncn2nc(-c4ccco4)nc32)cc1 |  | inconclusive [cytotoxic, single point] |
| O=c1c2cc(NC(=S)NC3CCN(Cc4ccccc4)CC3)ccc2nc2n1CCCCC2 |  | inconclusive [cytotoxic, single point] |
| CCCC#Cc1ccc2c(c1)O[C@@H](CN(C)Cc1ccc3c(c1)OCO3)[C@H](C)CN([C@@H](C)CO)S2(=O)=O |  | inconclusive [cytotoxic, single point] |
| COc1cc(C(O)c2nc(-c3ccc(F)cc3OC)cs2)ccc1F (stereo not given) |  | inconclusive [cytotoxic, single point] |
| CCOC(=O)N1CCc2[nH]c3ccc(C)cc3c2C1 |  | inconclusive [cytotoxic, partial curve] |
| CCCn1nc(C(=O)N2CC(=O)Nc3ccccc32)c2ccccc2c1=O |  | inconclusive [cytotoxic, single point] |
| CC(=O)c1ccc(NC(=O)C[n+]2ccc(N(C)C)cc2)cc1 |  | inconclusive [cytotoxic, partial curve] |
| CN(Cc1ccccc1)S(=O)(=O)c1ccc(NC(=S)NC(=O)C2CCCC2)cc1 |  | active: 7.08 µM |
| CCc1cccc(C)c1NC(=O)CC1Oc2ccc(C)cc2NC1=O (stereo not given) | inactive: 10% |  |
| CCCCNC(=O)C1(C)CCC(=O)N1CCOc1ccccc1 (stereo not given) | inactive: 10.6% |  |
| O=C(Nc1ccccc1)c1cc(C2COCCN2C(=O)C2CC2)on1 (stereo not given) |  | inconclusive [rising, single point] |
| FC(F)Oc1ccc(NC(=S)NC2CCSc3ccccc32)cc1 (stereo not given) |  | inconclusive [cytotoxic, single point] |
| COc1ccc(C(=O)CC(=O)C(=O)Nc2ccc(C)c(C)c2)cc1 | inactive: -1.71% |  |
| Fc1ccc(Nc2nc(N3CCOCC3)c3ccccc3n2)cc1 | inactive: -0.691% |  |
| COc1ccc(/C=C(\C#N)C(=O)OCC(=O)NC(=O)NCCC(C)C)cc1 |  | inconclusive [rising, partial curve] |
| O=C1CCCC2=C1C(c1cccs1)n1nc(SCc3ccccc3)nc1N2 (stereo not given) |  | inconclusive [cytotoxic, single point] |
| COc1ccc(-c2cc(NC=O)c3ncc(-c4cc(OC)c(OC)c(OC)c4)n3c2)cc1 |  | inconclusive [cytotoxic, full curve] |
| CCCc1cc(=O)n2nc(N3CCC(C(=O)N4CCN(c5ccc(OC)cc5)CC4)CC3)sc2n1 |  | inconclusive [cytotoxic, single point] |
